In patent US20150322149A1 (Hoffmann-La Roche, published 2015):

Legend:
[1] = target: T1, Abeta(1-40), fibrillar, immobilized (UniProt P05067 partial chain); assay: indirect ELISA on immobilized Abeta fibrils
T1 construct: domain: Abeta(1-40); Numbers 1-40 count on the Abeta peptide, not on the APP precursor; also called Abeta fibrils; fibrillar Abeta
Description: Functionality of mAb31 was confirmed by ELISA. Briefly, Abeta(1-40) was coated at 7 μg/mL in PBS onto Maxisorp plates for 3 days at 37° C. to produce fibrillar Abeta, then dried for 3 h at RT. The plate was blocked with 1% Crotein C and 0.1% RSA in PBS (blocking buffer) for 1 h at RT, then washed once with wash buffer. mAb31 constructs were added at concentrations up to 100 nM in blocking buffer and incubated at 4° C. overnight. After 4 wash steps, constructs were detected as indicated above.

[2] = target: T2, recombinant mouse transferrin receptor (mTfR), extracellular domain (mouse, UniProt Q62351); assay: indirect ELISA on immobilized mTfR extracellular domain
T2 construct: extracellular domain; Bought protein; also called murine Transferrin receptor 1
T2 sequence (Q62351 89-763): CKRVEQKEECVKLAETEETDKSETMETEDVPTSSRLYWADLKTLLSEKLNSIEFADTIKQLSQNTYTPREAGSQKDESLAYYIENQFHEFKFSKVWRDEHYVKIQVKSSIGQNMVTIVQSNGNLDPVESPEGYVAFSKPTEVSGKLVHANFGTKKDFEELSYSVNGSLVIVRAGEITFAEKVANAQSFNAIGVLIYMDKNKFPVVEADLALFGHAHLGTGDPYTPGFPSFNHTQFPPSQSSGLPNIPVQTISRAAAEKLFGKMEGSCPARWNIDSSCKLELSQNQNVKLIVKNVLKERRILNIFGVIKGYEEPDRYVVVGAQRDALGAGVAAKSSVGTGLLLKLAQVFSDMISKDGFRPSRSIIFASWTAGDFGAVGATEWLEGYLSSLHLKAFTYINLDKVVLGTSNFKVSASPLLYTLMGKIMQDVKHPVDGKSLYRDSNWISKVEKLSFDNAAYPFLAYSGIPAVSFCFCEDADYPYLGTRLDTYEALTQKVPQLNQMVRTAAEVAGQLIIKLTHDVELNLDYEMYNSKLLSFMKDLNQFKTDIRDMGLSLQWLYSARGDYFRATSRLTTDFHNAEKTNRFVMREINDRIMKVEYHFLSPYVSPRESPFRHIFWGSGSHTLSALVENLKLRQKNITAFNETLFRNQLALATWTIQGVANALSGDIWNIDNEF
Description: Binding of mAb31-8D3 constructs to mouse transferrin receptor (mTfR) was assessed by indirect ELISA. To this end, recombinant mTfR (extracellular domain; Sino Biological) was coated to Maxisorb microtiter plate (Nunc) at 1 μg/mL in PBS at 4° C. overnight. After blocking in 1% Cro-tein-C/PBS (blocking buffer; Roche) for 1 h at RT and 4 washes with 0.1% Tween-20/PBS (wash buffer), mAb31-8D3 constructs were added to the wells at concentrations between 0.01 and 150 nM in blocking buffer and incubated for 1 h at RT. After 4 wash steps, constructs were detected by addition of anti-human-IgG-HRP (Jackson Immunoresearch) at 1:10,000 dilution in blocking buffer […], followed by 6 washes and incubation in TMB (Sigma). Absorbance was read out at 450 nm after stopping color development with 1 N HCl.

T1 sequence (P05067 672-711 limits assumed): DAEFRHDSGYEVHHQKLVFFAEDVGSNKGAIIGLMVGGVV

B1: Tetravalent Mab31-scFab(8D3) (mAb31-8D3-dFab) (bispecific antibody, human IgG1, kappa)
heavy: QVELVESGGGLVQPGGSLRLSCAASGFTFSSYAMSWVRQAPGKGLEWVSAINASGTRTYYADSVKGRFTISRDNSKNTLYLQMNSLRAEDTAVYYCARGKGNTHKPYGYVRYFDVWGQGTLVTVSS[letters of human IgG1 constant region omitted]GSGGGGSGGGGSGGGGSDIQMTQSPASLSASLEEIVTITCQASQDIGNWLAWYQQKPGKSPQLLIYGATSLADGVPSRFSGSRSGTQFSLKISRVQVEDIGIYYCLQAYNTPWTFGGGTKVEIKRTVAAPSVFIFPPSDEQLKSGTASVVCLLNNFYPREAKVQWKVDNALQSGNSQESVTEQDSKDSTYSLSSTLTLSKADYEKHKVYACEVTHQGLSSPVTKSFNRGECGGGGSGGGGSGGGGSGGGGSGGGGSGGGGSGGEVQLVESGGGLVQPGNSLTLSCVASGFTFSNYGMHWIRQAPKKGLEWIAMIYYDSSKMNYADTVKGRFTISRDNSKNTLYLEMNSLRSEDTAMYYCAVPTSHYVVDVWGQGVSVTVSSASTKGPSVFPLAPSSKSTSGGTAALGCLVKDYFPEPVTVSWNSGALTSGVHTFPAVLQSSGLYSLSSVVTVPSSSLGTQTYICNVNHKPSNTKVDKKVEPKSC
light: DIVLTQSPATLSLSPGERATLSCRASQSVSSSYLAWYQQKPGQAPRLLIYGASSRATGVPARFSGSGSGTDFTLTISSLEPEDFATYYCLQIYNMPITFGQGTKVEIKRTVAAPSVFIFPPSDEQLKSGTASVVCLLNNFYPREAKVQWKVDNALQSGNSQESVTEQDSKDSTYSLSSTLTLSKADYEKHKVYACEVTHQGLSSPVTKSFNRGEC
notes: also called dFab-mAb31; dFab-MAb31
binding result [1]: binds
binding result [2]: binds

B2: Trivalent Mab31-scFab(8D3) (mAb31-8D3-sFab) (bispecific antibody, human IgG1, kappa)
heavy 1: QVELVESGGGLVQPGGSLRLSCAASGFTFSSYAMSWVRQAPGKGLEWVSAINASGTRTYYADSVKGRFTISRDNSKNTLYLQMNSLRAEDTAVYYCARGKGNTHKPYGYVRYFDVWGQGTLVTVSSASTKGPSVFPLAPSSKSTSGGTAALGCLVKDYFPEPVTVSWNSGALTSGVHTFPAVLQSSGLYSLSSVVTVPSSSLGTQTYICNVNHKPSNTKVDKKV[letters of human IgG1 Fc with changes omitted]GGSGGGGSGGGGSGGGGSDIQMTQSPASLSASLEEIVTITCQASQDIGNWLAWYQQKPGKSPQLLIYGATSLADGVPSRFSGSRSGTQFSLKISRVQVEDIGIYYCLQAYNTPWTFGGGTKVEIKRTVAAPSVFIFPPSDEQLKSGTASVVCLLNNFYPREAKVQWKVDNALQSGNSQESVTEQDSKDSTYSLSSTLTLSKADYEKHKVYACEVTHQGLSSPVTKSFNRGECGGGGSGGGGSGGGGSGGGGSGGGGSGGGGSGGEVQLVESGGGLVQPGNSLTLSCVASGFTFSNYGMHWIRQAPKKGLEWIAMIYYDSSKMNYADTVKGRFTISRDNSKNTLYLEMNSLRSEDTAMYYCAVPTSHYVVDVWGQGVSVTVSSASTKGPSVFPLAPSSKSTSGGTAALGCLVKDYFPEPVTVSWNSGALTSGVHTFPAVLQSSGLYSLSSVVTVPSSSLGTQTYICNVNHKPSNTKVDKKVEPKSC
heavy 2: QVELVESGGGLVQPGGSLRLSCAASGFTFSSYAMSWVRQAPGKGLEWVSAINASGTRTYYADSVKGRFTISRDNSKNTLYLQMNSLRAEDTAVYYCARGKGNTHKPYGYVRYFDVWGQGTLVTVSSASTKGPSVFPLAPSSKSTSGGTAALGCLVKDYFPEPVTVSWNSGALTSGVHTFPAVLQSSGLYSLSSVVTVPSSSLGTQTYICNVNHKPSNTKVDKKV[letters of human IgG1 Fc with changes omitted]
light: B1 light
notes: also called sFab-mAb31; sFab-MAb31
binding result [2]: binds
